The text below walks through data of PubChem BioAssay AID1963842 (Molecular Pharmacology Branch, DTP, NCI, 2024).

Some entries of the source have several records that differ or are many. This list holds those alone. An entry can have further records. The records of an entry repeat one measurement across runs, samples, wells, individuals or studies. Additions like (4×) count equal records among those shown. A date in brackets names the month of the test.

The subject of the experiment is 677734-321-R-J1-PDC complex spheroid viability. The experiment in a line: Anticancer human tumor 677734-321-R-J1-PDC patient-derived soft tissue sarcoma cell line growth inhibition [POLQ]. To be noted: for viability, T/C: stronger effect = lower value; for IC50: compound alone. On the procedure: Multicellular complex tumor spheroid response to Polymerase (POL) inhibitors (novobiocin, ART-558, RP6685) in combination with a variety of drugs and investigational agents in selected tumor cell lines
The POL inhibitors (novobiocin, ART-558, and RP6685) were evaluated both individually and in combination with standard of care and investigational anticancer small molecules within a complex spheroid model of solid tumors. . Complex spheroids include a stromal component modeled by human endothelial cells (HUVEC) and fibroblasts modeled by human mesenchymal stem cells (MSCs). The concentration ranges selected for each drug and investigational agent were based upon clinically achievable concentrations if the clinical Cmax of the agent was known.
Compounds. The drugs and investigational agents: novobiocin (NSC847541), ART-558 (NSC835418), RP-6685 (NSC848927), peposertib (NSC802822), ceralasertib (NSC780249), elimusertib (NSC800525), camonsertib (NSC841442), AZD-1390 (NSC803789), olaparib (NSC753686), talazoparib (NSC767125), rucaparib (NSC756644), sotorasib (NSC818433), MRTX-1133 (NSC836407), SN-38 (NSC673596), topotecan (NSC609699), epotoside (NSC141540), doxorubicin (NSC123127), gemcitabine (NSC613327), 5-fluorouracil (NSC19893), paclitaxel (NSC125973), vemurafenib (NSC761431), MSA-2 (NSC828583), SN-011 (NSC837082), adavosertib (NSC754352), prexasertib (NSC758257), carboplatin (NSC241240) and oxaliplatin (NSC266046), were obtained from the National Cancer Institute (NCI) Developmental Therapeutics Program Chemical Repository (21). The FDA-approved anticancer drug set is available from the Developmental Therapeutics Program at https://dtp.cancer.gov/organization/dscb/obtaining/. […] The stock solutions were prepared in dimethyl sulfoxide (DMSO, Sigma-Aldrich, St. Louis, MO, cat. D2650), except for the platinum compounds which were prepared in saline (Quality Biological, Gaithersburg, MD, cat. 114-055-101), at 800-fold the tested concentration and stored at -70 degrees C prior to their use. All drugs and investigational agents were tested over a range starting from a high concentration at or near the clinical Cmax and decreasing in half-log increments. If the clinical Cmax for an agent had not been determined, the highest concentration tested was 10 microM, except for SN-38, which was tested at a high concentration of 1 microM.
Cell Culture. All cells were maintained in an incubator at 37 degrees C and 5% CO2 with 95% humidity. The PDC lines were cultured according to standard operating procedures established by the NCI PDMR (https://pdmr.cancer.gov). Table 3 of the manuscript, lists the cell lines along with the number of the three cell types plated to form the mct-spheroids and media for tumor cell growth. After thawing, all PDC lines, except 997537-175-T-J1-PDC and 415267-285-R-J2-PDC, were cultured in Matrigel-coated flasks prepared with a working solution of 1X Ham's F-12 nutrient mix, without supplementation (Thermo Fisher Scientific, cat. 11765054), 100 U/mL penicillin-streptomycin (Thermo Fisher Scientific, cat. 15140122), and 2.5% Matrigel (Corning Inc., Corning, NY, cat. 354248) for the first three passages. The two PDC lines 997537-175-T-J1-PDC and 415267-285-R-J2-PDC were cultured on uncoated flasks. The 857933-349-R-J2-PDC line was cultured in 6C/Colon 1B media containing advanced DMEM/F-12 (Thermo Fisher Scientific, cat. 12634028), 10 mM HEPES (Thermo Fisher Scientific, cat. 15630080), 1X GlutaMAX supplement (Thermo Fisher Scientific, cat. 35050061), 0.1 mg/mL primocin (InvivoGen, San Diego, CA, cat. ant-pm-2), 10% defined fetal bovine serum, heat inactivated (HyClone Laboratories Inc., Logan, UT, cat. SH30070.03HI), 50% L-WRN conditioned media (ATCC, cat. CRL-3276), 1.25 mM N-Acetyl-L-cysteine (Sigma-Aldrich, cat. A9165), 10 mM nicotinamide (Sigma-Aldrich, cat. N0636), 1X B-27 supplement (Thermo Fisher Scientific, cat. 17504044), 1X N-2 supplement (Thermo Fisher Scientific, cat. […]
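Further: spheroids exposed to compounds for one week.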
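Wherever viability, T/C is given: 100% = vehicle DMSO treated spheroids.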

As to `Nc1ccc(C#CCN(C(=O)Cc2ncc(C(F)(F)F)cc2C(F)(F)F)c2ccc(F)cc2)nn1`, the viability, T/C reads like this: (compound alone 0.0316 µM) 104, 96.6, 87.3, 92.4, 95.4, 106, 95.5, 113, 96.4, 92.1, 108, 99.5, 102%; (compound alone 1 µM) 91.6 (2×), 107, 103, 104, 110 (2×), 105 (2×), 115, 93.6, 117, 96.5%; (compound alone 10 µM) 89.1, 108, 116, 106, 118, 109, 101, 103 (4×), 104, 96.5%. A word on the IC50: it is the concentration at which inhibition is half-maximal. For `O=C(c1cc(Cc2n[nH]c(=O)c3ccccc23)ccc1F)N1CCN(C(=O)C2CC2)CC1`, the IC50 was < 31.6 nM, > 10 µM [2023-11] and > 10 µM [2023-12]. `Cc1cccc(N(C)C(=O)C2C(O)CCN2c2nc(C)cc(C(F)(F)F)c2C#N)c1` (configuration not stated): the viability, T/C (compound alone 10 µM) was 104, 102 (3×), 99.5, 110, 101, 103% [2023-11] and 87.4, 80.8, 90.3 (2×), 89.4% [2023-12]. Take `CC(C)n1c(=O)n(C)c2cnc3cc(F)c(-c4ccc(OCCCN5CCCCC5)nc4)cc3c21`: the IC50 is < 31.6 nM, > 10 µM [2023-11] and > 10 µM [2023-12].

For the compound `CC1COCCN1c1cc(-c2ccnn2C)c2ccnc(-c3ccn[nH]3)c2n1` (configuration not stated), for the setting “compound alone 0.316 µM”, the viability, T/C was 22.4%, 36% [2023-11] and 7.45% [2023-12].
